Data from the supplement of paper PMC10338343.
± gives the standard deviation. Only a part is listed here, and it is no random draw.

What follows are sequences tested on MIWI (PIWIL1) piRISC loaded with L1MC piRNA (30 nt) (assay: pre-steady-state target cleavage rate (min^-1); MIWI and MILI are mouse PIWI proteins and EfPiwi is from a freshwater sponge; tags in brackets are library labels; higher = faster piRNA-guided slicing of the target). Details: guide: L1MC piRNA 5'p-UAACUAAAUACUAUGCAAGCUGUAGGUCCU; auxiliary factor: 500 nM mouse GTSF1.
Procedure: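 Cleave-'n-Seq: a library of target RNAs (target site embedded in constant flanks, ACAGCATTCCGCGTTAGTGATATCCG... 5' flank; DNA-blocked outside the site) at 0.1 nM was incubated with 1 nM active mouse MILI or MIWI piRISC (synthetic 5'-monophosphorylated piRNA guide) with or without 500 nM mouse GTSF1 at 33 °C for 1 min to 16 h. Uncleaved targets were sequenced and normalised to non-target controls, and the pooled three trials were fitted to a burst-and-steady-state model to give the pre-steady-state cleavage rate (min^-1; k3 is constrained to at most 1e-4). Sequence is the target site only; target names encode pairing extent (gX:gY) and contiguous / 1-mismatch / 2-mismatch / bulge geometry. Fits with R² ≤ 0 are excluded.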

| Sequence | pre-steady-state target cleavage rate |
| --- | --- |
| UCCUGGAUGAGCUUGCAUACUAUUUAGAUA | 0.0538 ± 0.017 |
| UCCACGAUCAGCUUGCAUAGUAUUUACAAA | 0.368 ± 0.042 |
| UCCUGGUACAGCUUGCAUAGUAUUAAGAUA | 0.153 ± 0.037 |
| UGGACCAACAGCUUGCAUUGUAUUUAGUUA | 0.967 ± 0.037 |
| UCGACCUACAGCUCUGCAUAGUAUUUAGUUA | 1.32 ± 0.067 |
| UCCUGGAUGUGCUUGCAUAGUAUUUUGAUA | 0.0664 ± 0.016 |
| UCCUGGAUGAGCUUGCAUAGUAUUAAGAUA | 0.0969 ± 0.027 |
| UCCACGUACAGCUUGCAUAGUAAUUAGUUA | 0.779 ± 0.034 |
| AGGACCUACAGCUUGCAUAGUAUUCUAGUUA | 0.725 ± 0.071 |
| UCCUGGUACAGCUUGCAUAGUAUUUAGUUA [g2:g24:cont:t1A] | 0.82 ± 0.041 |
| UCCUGGAACUCCUUGCAUAGUAUUUACAAA | 0.26 ± 0.078 |
| UCCACCUUCAGCUUGCAUACUAUUUAGUUA | 0.313 ± 0.025 |
| AGGACCUACAGCUUGCAUAGUAUAAUGAAA | 0.385 ± 0.071 |
| UGGACCUACAGCUUGUCAUAGUAUUUAGUUA | 0.706 ± 0.1 |
| UCCUGGUACAGCUUGCAUAGUAUUUUGAAA | 0.313 ± 0.069 |
| UCCUGGUACAGCAUGCAUAGUAUUUAGUUA | 0.936 ± 0.061 |
| UGGACCUACAGCUUGCAUAGUAUUGAGUUA | 0.58 ± 0.059 |
| UGCACCUACAGCUUGCAUAGUAUUUUGUUA | 0.852 ± 0.083 |
| UCCUCCUACAGCUUGCAUAGAAUUUUGUUA | 0.303 ± 0.048 |
| UCCUCCUUGAGCUUGCAUAGUAUUUAGUAA | 0.621 ± 0.079 |
| UCCACCUACAGGUUGCAUAGUAAUUAGUUA | 0.799 ± 0.1 |

Same assay, conditions: guide: L1MC piRNA 5'p-UAACUAAAUACUAUGCAAGCUGUAGGUCCU; auxiliary factor: none (no GTSF1)

| Sequence | pre-steady-state target cleavage rate |
| --- | --- |
| UCCUGGAUGAGCUUGCAUACUAUUUAGAUA | 0.00863 ± 0.0041 |
| UCCACGAUCAGCUUGCAUAGUAUUUACAAA | 0.00566 ± 0.0024 |
| UCCUGGUACAGCUUGCAUAGUAUUAAGAUA | 0.00342 ± 0.0022 |
| UGGACCAACAGCUUGCAUUGUAUUUAGUUA | 0.0357 ± 0.0087 |
| UCGACCUACAGCUCUGCAUAGUAUUUAGUUA | 0.0476 ± 0.0099 |
| UCCUGGAUGUGCUUGCAUAGUAUUUUGAUA | 0.00851 ± 0.0028 |
| UCCUGGAUGAGCUUGCAUAGUAUUAAGAUA | 0.00447 ± 0.0029 |
| UCCACGUACAGCUUGCAUAGUAAUUAGUUA | 0.0232 ± 0.0048 |
| AGGACCUACAGCUUGCAUAGUAUUCUAGUUA | 0.0759 ± 0.018 |
| UCCUGGUACAGCUUGCAUAGUAUUUAGUUA [g2:g24:cont:t1A] | 0.0692 ± 0.013 |
| UCCACCUUCAGCUUGCAUACUAUUUAGUUA | 0.0227 ± 0.0046 |
| UGGACCUACAGCUUGUCAUAGUAUUUAGUUA | 0.00373 ± 0.0033 |
| UCCUGGUACAGCUUGCAUAGUAUUUUGAAA | 0.00427 ± 0.0021 |
| UCCUGGUACAGCAUGCAUAGUAUUUAGUUA | 0.0248 ± 0.0059 |
| UGGACCUACAGCUUGCAUAGUAUUGAGUUA | 0.0415 ± 0.0059 |
| UGCACCUACAGCUUGCAUAGUAUUUUGUUA | 0.0692 ± 0.015 |
| UCCUCCUACAGCUUGCAUAGAAUUUUGUUA | 0.00989 ± 0.0026 |
| UCCUCCUUGAGCUUGCAUAGUAUUUAGUAA | 0.0166 ± 0.0044 |
| UCCACCUACAGGUUGCAUAGUAAUUAGUUA | 0.0102 ± 0.0016 |
